Test results taken from the supplement of paper PMC3334620.
In all, about 33,000 sequences were measured (“E-score (-0.5 to 0.5)”: median about -0.032, highest 2% from about 0.36 on). The list shows a part of the results.

target: T1, Sko1 (UniProt Q02100); experiment: PBM E-score (8-mer binding enrichment) (E-score (-0.5 to 0.5)); higher = stronger / more preferred TF binding; most listed sequences are background and not binding sites; conditions: protein concentration: 200 nM; construct: GST-full length
T1 sequence: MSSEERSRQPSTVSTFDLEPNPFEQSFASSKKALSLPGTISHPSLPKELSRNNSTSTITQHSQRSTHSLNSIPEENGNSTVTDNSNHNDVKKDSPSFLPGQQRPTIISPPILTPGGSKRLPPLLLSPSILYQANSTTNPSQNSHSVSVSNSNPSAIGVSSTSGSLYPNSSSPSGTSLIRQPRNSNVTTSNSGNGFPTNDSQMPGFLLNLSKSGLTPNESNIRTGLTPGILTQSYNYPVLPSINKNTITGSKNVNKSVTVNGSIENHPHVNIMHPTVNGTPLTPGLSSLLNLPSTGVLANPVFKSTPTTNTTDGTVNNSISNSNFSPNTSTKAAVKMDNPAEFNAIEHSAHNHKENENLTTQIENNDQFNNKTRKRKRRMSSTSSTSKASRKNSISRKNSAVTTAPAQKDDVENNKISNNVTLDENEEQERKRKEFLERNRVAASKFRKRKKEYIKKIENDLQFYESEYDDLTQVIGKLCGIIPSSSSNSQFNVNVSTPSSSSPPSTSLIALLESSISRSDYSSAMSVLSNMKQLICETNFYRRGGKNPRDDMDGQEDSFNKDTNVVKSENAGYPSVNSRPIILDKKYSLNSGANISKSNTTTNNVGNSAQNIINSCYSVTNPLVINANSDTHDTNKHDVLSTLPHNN
Description: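 Universal 'all 10-mer' protein binding microarrays (Agilent AMADID 015681) probed with GST-tagged S. cerevisiae TFs (full-length or DBD) made by in vitro transcription/translation (PURExpress), about 100-200 nM. Bound TF was detected with fluorescent anti-GST. Each ungapped 8-mer (which stands for itself and its reverse complement) is scored by the PBM enrichment score (E-score), a modified Wilcoxon-Mann-Whitney statistic from -0.5 to +0.5, computed with the Universal PBM Analysis Suite. Scale: above 0.35 generally sequence-specific binding.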

Sequence | PBM E-score
AGTGTGGA | -0.0206
TATTCAAA | 0.134
GACGAAAC | 0.289
ACATTCCC | -0.0869
GCTTCACC | -0.184
CTCATCAG | -0.0173
ATGTTTAG | 0.0953
TCTCCCAA | -0.0838
CAGCGTGA | -0.0118
AGGACCGA | -0.108
AGGATTTA | 0.0641
AGTGTCAT | 0.231
AAGATAAA | 0.262
AAGCGGTA | -0.00885
ACGCGAGG | 0.0164
CCTCTATC | -0.203
ATGACACC | 0.26
ACTCCTAG | -0.345
GGGGCTGA | -0.139
TCGGAACA | 0.0966
AATGGACG | 0.338
GAGCGTCC | -0.104
AGAGTCGC | -0.0763
AAGGGCCT | -0.329

Sequence | PBM E-score
GAAACCGC | -0.0581
AATGTTGG | 0.014
ATTTAACG | 0.215
CGTAGCCC | 0.169
ACGTATCT | 0.419
CCAATGCC | -0.239
ATCGATTA | 0.183
GCACTACA | -0.0138
AATATCTG | -0.053
CACTGGGA | -0.0437
TAGTTCCA | -0.0377
AATGGTGC | -0.0923
AGGGGGGA | -0.229
ATTCTTCA | -0.0499
CGGTACAC | -0.195
GACTGATA | -0.144
AGCTCCGC | -0.111
ACTAACGC | 0.0897
AACAAGAC | 0.0336
ACTGAACC | -0.241
CTGATGTC | 0.173
GGGCATCA | 0.0423
AACGGCGA | 0.00837
ATCTTAAC | 0.24

Sequence | PBM E-score
CAAAAAGC | 0.0208
CGCGCGGC | 0.164
ATTGTCCA | -0.0062
AGGTTTAG | -0.0336
AACAATTC | 0.0554
CAGGTCTC | -0.279
TATCCCGA | 0.0654
CCTGGCAC | -0.224
AATTAGTG | 0.159
CTATTAAA | 0.0923
TCGTTCAA | -0.0129
GAATCCCA | -0.105
CAGGGCCG | -0.162
AGTATAAC | 0.0724
CGGAGTCA | -0.0951
GGTTAACA | 0.0946
CCCGGCTA | -0.309
ATTGCTGC | -0.0462
CAACCCTC | -0.178
ACCTTAGA | 0.0372
AGAAGCTG | -0.0693
AGGATGCC | -0.211
ACAGATTA | 0.032
AGTAGAAC | -0.0441

Sequence | PBM E-score
ATCATAAC | 0.301
GGATCTTA | -0.0116
CCAGTAGA | -0.0456
CTAGAAGC | -0.181
AGCATTCG | -0.0192
AATGTGCG | 0.222
ACAAAGGC | -0.202
AGAACATC | 0.0232
GGCACTGA | -0.0952
AGCTTCTG | -0.26
CTAACTTC | 0.0478
AACGTGCC | 0.167
GCTTCAAA | -0.227
GGACCTCA | -0.0759
ATGAGGGC | -0.142
AGCTTAAA | -0.0733
CGGTAAGC | -0.122
AACCTATG | 0.128
GTCGCGAC | 0.205
CCGCAAGC | -0.232
CTTAGCAA | -0.0104
CACGTGCA | 0.329
